# Some of the results follow.
# B1: CFEM-SCL (Saccharomyces cerevisiae), O13547 (protein)
# chain: MRATTLLSSVVSLALLSKEVLATPPACLLACVAQVGKSSSTCDSLNQVTCYCEHENSAVKKCLDSICPNNDADAAYSAFKSSCSEQNASLGD
# Assays:
# Assay in all cases: glycan array binding signal (z-score within array); higher = stronger binding
# Settings in all cases: glycan notation: IUPAC condensed, linker removed
# [1] = biological target: GlcNAc(b1-4)GlcNAc(b1-4)GlcNAc(b1-4)GlcNAc(b1-4)GlcNAc
# Outline: (§1)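 Glycan array data were curated from 3228 arrays in the Consortium for Functional Glycomics database and kept only where the protein sequence was available. Glycan names were converted to IUPAC-condensed notation, and columns mapping to the same glycan were averaged. The binding signal is a within-array Z-score, averaged across arrays of the same protein sequence at different concentrations or buffers and across linkers. Negative Z-scores can be read as non-binding.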
# [2] = biological target: GlcNAc(b1-4)GlcNAc(b1-4)GlcNAc(b1-4)GlcNAc(b1-4)GlcNAc(b1-4)GlcNAc
# Outline: as §1
# [3] = biological target: GlcNAc(b1-4)[GlcNAc(b1-6)]GalNAc
# Outline: as §1
# [4] = biological target: GlcNAc(b1-6)Gal(b1-4)GlcNAc
# Outline: as §1
# GlcNAc(b1-6)GalNAc = biological target: GlcNAc(b1-6)GalNAc
# Outline: as §1
# [5] = biological target: GlcNAc6S(b1-3)Gal(b1-4)GlcNAc
# Outline: as §1
# Kdn(a2-3)Gal(b1-3)GalNAc = biological target: Kdn(a2-3)Gal(b1-3)GalNAc
# Outline: as §1
# Kdn(a2-3)Gal(b1-3)GlcNAc = biological target: Kdn(a2-3)Gal(b1-3)GlcNAc
# Outline: as §1
# Kdn(a2-3)Gal(b1-4)Glc = biological target: Kdn(a2-3)Gal(b1-4)Glc
# Outline: as §1
# Kdn(a2-3)Gal(b1-4)GlcNAc = biological target: Kdn(a2-3)Gal(b1-4)GlcNAc
# Outline: as §1
# [6] = biological target: Kdn(a2-3)Gal(b1-4)[Fuc(a1-3)]GlcNAc
# Outline: as §1
# Kdn(a2-6)Gal(b1-4)GlcNAc = biological target: Kdn(a2-6)Gal(b1-4)GlcNAc
# Outline: as §1
# [7] = biological target: Man(a1-2)Man(a1-2)Man(a1-3)Man
# Outline: as §1
# [8] = biological target: Man(a1-2)Man(a1-2)Man(a1-6)[Man(a1-3)]Man
# Outline: as §1
# Man(a1-2)Man(a1-3)Man = biological target: Man(a1-2)Man(a1-3)Man
# Outline: as §1
# [9] = biological target: Man(a1-2)Man(a1-3)[Man(a1-2)Man(a1-6)]Man
# Outline: as §1
# [10] = biological target: Man(a1-2)Man(a1-3)[Man(a1-2)Man(a1-6)]Man(a1-6)[Man(a1-2)Man(a1-2)Man(a1-3)]Man
# Outline: as §1
# [11] = biological target: Man(a1-2)Man(a1-3)[Man(a1-2)Man(a1-6)]Man(a1-6)[Man(a1-2)Man(a1-2)Man(a1-3)]Man(b1-4)GlcNAc(b1-4)GlcNAc
# Outline: as §1
# [12] = biological target: Man(a1-2)Man(a1-3)[Man(a1-6)]Man(a1-6)[Man(a1-2)Man(a1-3)]Man(b1-4)GlcNAc(b1-4)GlcNAc
# Outline: as §1
# [13] = biological target: Man(a1-2)Man(a1-6)[Man(a1-3)]Man(a1-6)[Man(a1-2)Man(a1-2)Man(a1-3)]Man
# Outline: as §1
# [14] = biological target: Man(a1-2)Man(a1-6)[Man(a1-3)]Man(a1-6)[Man(a1-2)Man(a1-2)Man(a1-3)]Man(b1-4)GlcNAc(b1-4)GlcNAc
# Outline: as §1
# Man(a1-3)[Man(a1-6)]Man = biological target: Man(a1-3)[Man(a1-6)]Man
# Outline: as §1
# [15] = biological target: Man(a1-3)[Man(a1-6)]Man(a1-6)[Man(a1-2)Man(a1-3)]Man(b1-4)GlcNAc(b1-4)GlcNAc
# Outline: as §1
# [16] = biological target: Man(a1-3)[Man(a1-6)]Man(a1-6)[Man(a1-3)]Man
# Outline: as §1
# [17] = biological target: Man(a1-3)[Man(a1-6)]Man(a1-6)[Man(a1-3)]Man(b1-4)GlcNAc(b1-4)GlcNAc
# Outline: as §1
# [18] = biological target: Man(a1-3)[Man(a1-6)]Man(b1-4)GlcNAc(b1-4)GlcNAc
# Outline: as §1
# [19] = biological target: Man(a1-3)[Man(a1-6)]Man(b1-4)GlcNAc(b1-4)[Fuc(a1-6)]GlcNAc
# Outline: as §1
# Man(a1-6)Man = biological target: Man(a1-6)Man
# Outline: as §1
# Man(b1-4)GlcNAc = biological target: Man(b1-4)GlcNAc
# Outline: as §1
# MurNAc(b1-4)GlcNAc = biological target: MurNAc(b1-4)GlcNAc
# Outline: as §1
# Neu5Ac(a2-3)Gal = biological target: Neu5Ac(a2-3)Gal
# Outline: as §1
# [20] = biological target: Neu5Ac(a2-3)Gal(b1-3)GalNAc
# Outline: as §1
# [21] = biological target: Neu5Ac(a2-3)Gal(b1-3)GalNAc(b1-3)Gal(a1-4)Gal(b1-4)Glc
# Outline: as §1
# [22] = biological target: Neu5Ac(a2-3)Gal(b1-3)GalNAc(b1-4)[Neu5Ac(a2-3)]Gal(b1-4)Glc
# Outline: as §1
# [23] = biological target: Neu5Ac(a2-3)Gal(b1-3)GalNAc(b1-4)[Neu5Ac(a2-8)Neu5Ac(a2-3)]Gal(b1-4)Glc
# Outline: as §1
# [24] = biological target: Neu5Ac(a2-3)Gal(b1-3)GalNAc6S
# Outline: as §1
# [25] = biological target: Neu5Ac(a2-3)Gal(b1-3)GlcNAc
# Outline: as §1
# [26] = biological target: Neu5Ac(a2-3)Gal(b1-3)GlcNAc(b1-2)Man
# Outline: as §1
# [27] = biological target: Neu5Ac(a2-3)Gal(b1-3)GlcNAc(b1-2)Man(a1-3)[GlcNAc(b1-4)][Neu5Ac(a2-3)Gal(b1-3)GlcNAc(b1-2)Man(a1-6)]Man(b1-4)GlcNAc(b1-4)GlcNAc
# Outline: as §1
# [28] = biological target: Neu5Ac(a2-3)Gal(b1-3)GlcNAc(b1-2)Man(a1-3)[Neu5Ac(a2-3)Gal(b1-3)GlcNAc(b1-2)Man(a1-6)]Man(b1-4)GlcNAc(b1-4)GlcNAc
# Outline: as §1
# [29] = biological target: Neu5Ac(a2-3)Gal(b1-3)GlcNAc(b1-3)Gal(b1-3)GlcNAc
# Outline: as §1
# [30] = biological target: Neu5Ac(a2-3)Gal(b1-3)GlcNAc(b1-3)Gal(b1-4)GlcNAc
# Outline: as §1
# [31] = biological target: Neu5Ac(a2-3)Gal(b1-3)GlcNAc(b1-3)GalNAc
# Outline: as §1
# [32] = biological target: Neu5Ac(a2-3)Gal(b1-3)GlcNAc(b1-4)Gal(b1-4)Glc
# Outline: as §1
# [33] = biological target: Neu5Ac(a2-3)Gal(b1-3)GlcNAc(b1-6)GalNAc
# Outline: as §1
binder,measurement,setting,value
B1,glycan array binding signal (z-score),[1],-0.275
same,glycan array binding signal (z-score),[2],-0.126
same,glycan array binding signal (z-score),[3],-0.294
same,glycan array binding signal (z-score),[4],0.154
same,glycan array binding signal (z-score),GlcNAc(b1-6)GalNAc,-0.285
same,glycan array binding signal (z-score),[5],0.208
same,glycan array binding signal (z-score),Kdn(a2-3)Gal(b1-3)GalNAc,-0.177
same,glycan array binding signal (z-score),Kdn(a2-3)Gal(b1-3)GlcNAc,-0.26
same,glycan array binding signal (z-score),Kdn(a2-3)Gal(b1-4)Glc,-0.324
same,glycan array binding signal (z-score),Kdn(a2-3)Gal(b1-4)GlcNAc,-0.263
same,glycan array binding signal (z-score),[6],-0.086
same,glycan array binding signal (z-score),Kdn(a2-6)Gal(b1-4)GlcNAc,-0.312
same,glycan array binding signal (z-score),[7],0.113
same,glycan array binding signal (z-score),[8],-0.198
same,glycan array binding signal (z-score),Man(a1-2)Man(a1-3)Man,-0.279
same,glycan array binding signal (z-score),[9],-0.249
same,glycan array binding signal (z-score),[10],-0.133
same,glycan array binding signal (z-score),[11],-0.255
same,glycan array binding signal (z-score),[12],-0.174
same,glycan array binding signal (z-score),[13],-0.304
same,glycan array binding signal (z-score),[14],-0.252
same,glycan array binding signal (z-score),Man(a1-3)[Man(a1-6)]Man,-0.216
same,glycan array binding signal (z-score),[15],-0.231
same,glycan array binding signal (z-score),[16],-0.302
same,glycan array binding signal (z-score),[17],-0.255
same,glycan array binding signal (z-score),[18],-0.271
same,glycan array binding signal (z-score),[19],-0.235
same,glycan array binding signal (z-score),Man(a1-6)Man,0.021
same,glycan array binding signal (z-score),Man(b1-4)GlcNAc,-0.254
same,glycan array binding signal (z-score),MurNAc(b1-4)GlcNAc,-0.324
same,glycan array binding signal (z-score),Neu5Ac(a2-3)Gal,-0.351
same,glycan array binding signal (z-score),[20],-0.326
same,glycan array binding signal (z-score),[21],-0.203
same,glycan array binding signal (z-score),[22],-0.299
same,glycan array binding signal (z-score),[23],-0.319
same,glycan array binding signal (z-score),[24],-0.34
same,glycan array binding signal (z-score),[25],-0.285
same,glycan array binding signal (z-score),[26],-0.012
same,glycan array binding signal (z-score),[27],-0.147
same,glycan array binding signal (z-score),[28],-0.331
same,glycan array binding signal (z-score),[29],-0.21
same,glycan array binding signal (z-score),[30],-0.35
same,glycan array binding signal (z-score),[31],-0.343
same,glycan array binding signal (z-score),[32],-0.204
same,glycan array binding signal (z-score),[33],-0.275
